In PubChem BioAssay AID588591 (National Center for Advancing Translational Sciences (NCATS), 2011):
The whole screen tested about 390,000 compounds, of which about 4,700 (1.2%) were called active. Not shown: some 4% with an inconclusive outcome. The call rests on the fitted dose curve; in most records, active means well fitted inhibition curve with a large enough effect; inconclusive means small, poorly fitted or top-dose-only effect, or another doubt; inactive means no such curve, though single readings can be large or run the other way. This is a selection; strong and weak results do not stand in their true shares.

Each molecule was assayed against DNA polymerase eta (Homo sapiens) (UniProt Q9Y253) (assay: qHTS for Inhibitors of Polymerase Eta). Details: recombinant Pol eta, fluorescent DNA replication assay; series mostly up to 114 µM; activity change, negative = inhibition: at the top concentration.
Sequence of UniProt Q9Y253 (Q9Y253 whole entry, looked up): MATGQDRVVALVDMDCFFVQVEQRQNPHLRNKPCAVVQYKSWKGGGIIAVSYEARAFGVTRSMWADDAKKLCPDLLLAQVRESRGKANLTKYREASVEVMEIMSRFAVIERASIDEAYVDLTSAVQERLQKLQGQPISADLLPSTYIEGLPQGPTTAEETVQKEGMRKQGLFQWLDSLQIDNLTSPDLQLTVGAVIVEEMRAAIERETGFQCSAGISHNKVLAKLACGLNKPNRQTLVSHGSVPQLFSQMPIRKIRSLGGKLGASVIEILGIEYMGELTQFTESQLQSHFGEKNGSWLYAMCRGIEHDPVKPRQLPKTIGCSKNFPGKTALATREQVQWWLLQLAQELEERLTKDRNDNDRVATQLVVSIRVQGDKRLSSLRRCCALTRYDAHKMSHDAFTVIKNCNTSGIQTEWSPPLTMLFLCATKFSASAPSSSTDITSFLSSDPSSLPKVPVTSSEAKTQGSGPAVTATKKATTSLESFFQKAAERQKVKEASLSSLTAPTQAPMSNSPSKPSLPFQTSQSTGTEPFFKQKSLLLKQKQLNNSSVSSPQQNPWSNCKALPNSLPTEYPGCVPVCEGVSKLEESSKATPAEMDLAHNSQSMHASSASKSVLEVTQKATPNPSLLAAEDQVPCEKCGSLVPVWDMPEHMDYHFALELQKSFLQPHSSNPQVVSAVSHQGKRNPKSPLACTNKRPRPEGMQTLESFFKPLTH
In short: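 Pol eta (10 nM) was preincubated with compounds for 15 min at room temperature, after which fluorescent replication substrate (50 nM final) was added to start the reaction. Fluorescence was read kinetically at 0 and 10 min.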
On the % scale 0 is the no-effect control and ±100 the full control effect; potency means the concentration at half of the fitted maximal effect.

| Structure (SMILES) | activity change, negative = inhibition | Potency |
| --- | --- | --- |
| CC(=O)C[C@@H](O)CC(=O)[C@@H]1OC(=O)[C@H](C)C/C=C\Cc2ccccc21 | inactive: -0.0966% |  |
| Cc1ccc(C(=O)Nc2ccc(O)c(C(=O)O)c2)o1 |  | active: 14.1 µM |
| C=CCc1cccc2cc(C(=O)Nc3ccc(CC(=O)O)cc3)c(=O)oc12 |  | active: 35.5 µM |
| CC(=O)Nc1cc(NC(C)=O)cc(-c2nc3ccccc3[nH]2)c1 |  | inactive |
| COc1ccc(Cn2c(=O)[nH]c3cc(C(=O)NC4CCCC4)ccc3c2=O)cc1 | inactive: 35.3% |  |
| Cc1cc(=O)c2cc(Br)ccc2n1CC(=O)NCc1ccccc1 | inactive: 16.9% |  |
| CSc1cccc(NC(=O)CN(c2ccccc2)S(=O)(=O)N(C)C)c1 | inactive: -5.83% |  |
| COc1ccc(CCNC(=O)c2nnc(Cc3ccc(Cl)cc3)o2)cc1OC | inactive: -11.3% |  |
| O=Nc1c(-c2c(O)[nH]c3cc(Br)ccc23)[nH]c2ccccc12 | inactive: -17.6% |  |
| COc1ccc(NC(=O)CSc2nnc(-c3cccnc3)n2C)cc1 | inactive: 30.1% |  |
| CC(=O)Nc1ccc(S(=O)(=O)N2CCN(CCN3CCOCC3)CC2)cc1Cl | inactive: 18.4% |  |
| CCc1cc(C(=O)N(CC(C)C)c2c(N)n(Cc3ccccc3)c(=O)[nH]c2=O)sc1C | inactive: 15.7% |  |
| COc1ccc(/C=C(\NC(=O)c2ccccc2)C(=O)NC2CCCCC2)cc1 | inactive: 25.8% |  |
| CN1CCS/C1=C\C=C1/SC(=S)N(CC(=O)O)C1=O | inactive: -2.13% |  |
| O=C1c2ccccc2C(=O)N1c1ncn[nH]1 | inactive: 30.8% |  |
| COC(=O)/C=C1/SC(=NC(=O)c2cccc([N+](=O)[O-])c2)NC1=O | inactive: -15.5% |  |
| COc1ccc(C(CNC(=O)COc2cc(C)c(Cl)c(C)c2)N2CCCCC2)cc1 (configuration not stated) | inactive: -28.3% |  |
| N#C/C(=C\c1ccc(N2CCCC2)c([N+](=O)[O-])c1)c1nc2ccccc2[nH]1 | inactive: 10.6% |  |
| CCOc1ccc(C(=O)N/N=C/c2cc([N+](=O)[O-])cs2)cc1 | inactive: 32.6% |  |
| Cc1c(/C(O)=C2\C(=O)C(=O)N(CCCN(C)C)C2c2cccs2)cnn1-c1ccccc1 (configuration not stated) | inactive: 17.5% |  |
| C=CC[C@@H](CC(=O)N[C@H](CO)Cc1ccccc1)C(=O)N[C@H](COC(=O)[C@@H](CC=C)Cc1ccc(F)cc1)C(C)(C)C | inactive: -21.1% |  |
| Nc1cc(-c2nn[nH]n2)ccc1F |  | active: 11.2 µM |
